Measurements as given in the supplement of paper PMC8728848.
Some of the results follow.

What was measured:
Assay in all cases: glycan array binding signal (z-score within array); higher = stronger binding
Conditions in all cases: glycan notation: IUPAC condensed, linker removed
[1] = molecular target: Fuc(a1-3)[Gal(b1-4)]GlcNAc(b1-4)Gal(b1-4)[Fuc(a1-3)]GlcNAc
Summary of the method: (§1)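 From the Consortium for Functional Glycomics database, 3228 arrays were curated, keeping only those whose protein sequence was available. Binding is given as a within-array Z-score averaged across arrays sharing a protein sequence and across linkers. Negative Z-scores can be read as non-binding.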

[2] = molecular target: Fuc(a1-3)[Gal(b1-4)]GlcNAc(b1-4)Gal(b1-4)[Fuc(a1-3)]GlcNAc(b1-4)Gal(b1-4)[Fuc(a1-3)]GlcNAc
Summary of the method: as §1

[3] = molecular target: Fuc(a1-3)[Gal(b1-4)]GlcNAc(b1-6)GalNAc
Summary of the method: as §1

[4] = molecular target: Fuc(a1-3)[Gal(b1-4)]GlcNAc(b1-6)[Gal(b1-3)GlcNAc(b1-3)]Gal(b1-4)Glc
Summary of the method: as §1

[5] = molecular target: Fuc(a1-3)[Gal(b1-4)]GlcNAc(b1-6)[Neu5Ac(a2-3)Gal(b1-3)]GalNAc
Summary of the method: as §1

[6] = molecular target: Fuc(a1-3)[Gal(b1-4)]GlcNAc6S
Summary of the method: as §1

[7] = molecular target: Fuc(a1-3)[Gal3S(b1-4)]GlcNAc
Summary of the method: as §1

[8] = molecular target: Fuc(a1-3)[Gal3S(b1-4)]GlcNAc6S
Summary of the method: as §1

[9] = molecular target: Fuc(a1-3)[GalNAc(b1-4)]GlcNAc
Summary of the method: as §1

[10] = molecular target: Fuc(a1-3)[GalNAc(b1-4)]GlcNAc6S
Summary of the method: as §1

[11] = molecular target: Fuc(a1-3)[GalNAc3S(b1-4)]GlcNAc
Summary of the method: as §1

[12] = molecular target: Fuc(a1-4)GlcNAc
Summary of the method: as §1

[13] = molecular target: Fuc(b1-3)GlcNAc
Summary of the method: as §1

[14] = molecular target: Gal(a1-2)Gal
Summary of the method: as §1

[15] = molecular target: Gal(a1-3)Gal
Summary of the method: as §1

[16] = molecular target: Gal(a1-3)Gal(b1-3)GlcNAc
Summary of the method: as §1

[17] = molecular target: Gal(a1-3)Gal(b1-3)GlcNAc(b1-2)Man(a1-3)[Gal(a1-3)Gal(b1-3)GlcNAc(b1-2)Man(a1-6)]Man(b1-4)GlcNAc(b1-4)GlcNAc
Summary of the method: as §1

[18] = molecular target: Gal(a1-3)Gal(b1-3)GlcNAc(b1-3)GalNAc
Summary of the method: as §1

[19] = molecular target: Gal(a1-3)Gal(b1-3)GlcNAc(b1-6)GalNAc
Summary of the method: as §1

[20] = molecular target: Gal(a1-3)Gal(b1-3)[Fuc(a1-4)]GlcNAc(b1-2)Man(a1-3)[Gal(a1-3)Gal(b1-3)[Fuc(a1-4)]GlcNAc(b1-2)Man(a1-6)]Man(b1-4)GlcNAc(b1-4)GlcNAc
Summary of the method: as §1

[21] = molecular target: Gal(a1-3)Gal(b1-4)Glc
Summary of the method: as §1

[22] = molecular target: Gal(a1-3)Gal(b1-4)GlcNAc
Summary of the method: as §1

[23] = molecular target: Gal(a1-3)Gal(b1-4)GlcNAc(b1-3)GalNAc
Summary of the method: as §1

[24] = molecular target: Gal(a1-3)Gal(b1-4)GlcNAc(b1-6)GalNAc
Summary of the method: as §1

[25] = molecular target: Gal(a1-3)Gal(b1-4)[Fuc(a1-3)]GlcNAc
Summary of the method: as §1

[26] = molecular target: Gal(a1-3)Gal(b1-4)[Fuc(a1-3)]GlcNAc(b1-2)Man(a1-3)[Gal(a1-3)Gal(b1-4)[Fuc(a1-3)]GlcNAc(b1-2)Man(a1-6)]Man(b1-4)GlcNAc(b1-4)GlcNAc
Summary of the method: as §1

[27] = molecular target: Gal(a1-3)GalNAc
Summary of the method: as §1

[28] = molecular target: Gal(a1-3)[Gal(a1-4)]Gal(b1-4)GlcNAc
Summary of the method: as §1

[29] = molecular target: Gal(a1-4)Gal(b1-3)GlcNAc(b1-2)Man(a1-3)[Gal(a1-4)Gal(b1-3)GlcNAc(b1-2)Man(a1-6)]Man(b1-4)GlcNAc(b1-4)GlcNAc
Summary of the method: as §1

[30] = molecular target: Gal(a1-4)Gal(b1-4)Glc
Summary of the method: as §1

[31] = molecular target: Gal(a1-4)Gal(b1-4)GlcNAc
Summary of the method: as §1

[32] = molecular target: Gal(a1-4)Gal(b1-4)GlcNAc(b1-2)Man(a1-3)[Gal(a1-4)Gal(b1-4)GlcNAc(b1-2)Man(a1-6)]Man(b1-4)GlcNAc(b1-4)GlcNAc
Summary of the method: as §1

[33] = molecular target: Gal(a1-4)Gal(b1-4)GlcNAc(b1-3)Gal(b1-4)Glc
Summary of the method: as §1

[34] = molecular target: Gal(a1-4)GlcNAc
Summary of the method: as §1

[35] = molecular target: Gal(a1-6)Glc
Summary of the method: as §1

[36] = molecular target: Gal(b1-2)Gal
Summary of the method: as §1

[37] = molecular target: Gal(b1-3)Gal
Summary of the method: as §1

B1: RVL (Remusatia vivipara), B5LYJ9 (protein)
chain: MAKLLLFLLPAILGLLVPRSAVALGTNYLLSGQTLDTEGHLKNGDFDLVMQDDCNLVLYNGNWQSNTANNGRDCKLTLTDYGELVIKNGDGSTVWKSGAQSVKGNYAAVVHPDGRLVVLGPSVFKIDPWVRGLNSLRFRNIPFTNNLLFSGQVLYGDGRLTAKNHQLVMQGDCNLVLYGGKYGWQSNTHGNGEHCFLRLNHKGELIIKDDDFKTIWSSRSSSKQGEYVLILQDDGFGVIYGPAIFETSSKRSIAAS
Q: For B1, which “glycan array binding signal (z-score)” value [1] is on record?
A: -0.071

Q: And the “glycan array binding signal (z-score)” value [2]?
A: -0.274

Q: And the “glycan array binding signal (z-score)” value [3]?
A: -0.017

Q: What about the “glycan array binding signal (z-score)” value [4] of the same binder?
A: -0.363

Q: And the “glycan array binding signal (z-score)” value [5]?
A: -0.151

Q: And the “glycan array binding signal (z-score)” value [6]?
A: -0.001

Q: And the “glycan array binding signal (z-score)” value [7]?
A: -0.068

Q: What about the “glycan array binding signal (z-score)” value [8] of the same binder?
A: -0.041

Q: What about the “glycan array binding signal (z-score)” value [9] of the same binder?
A: -0.292

Q: What about the “glycan array binding signal (z-score)” value [10] of the same binder?
A: -0.315

Q: And the “glycan array binding signal (z-score)” value [11]?
A: -0.412

Q: And the “glycan array binding signal (z-score)” value [12]?
A: -0.261

Q: What about the “glycan array binding signal (z-score)” value [13] of the same binder?
A: -0.192

Q: What about the “glycan array binding signal (z-score)” value [14] of the same binder?
A: -0.182

Q: And the “glycan array binding signal (z-score)” value [15]?
A: -0.259

Q: What about the “glycan array binding signal (z-score)” value [16] of the same binder?
A: -0.241

Q: What about the “glycan array binding signal (z-score)” value [17] of the same binder?
A: 0.313

Q: And the “glycan array binding signal (z-score)” value [18]?
A: -0.166

Q: What about the “glycan array binding signal (z-score)” value [19] of the same binder?
A: -0.359

Q: What about the “glycan array binding signal (z-score)” value [20] of the same binder?
A: -0.039

Q: What about the “glycan array binding signal (z-score)” value [21] of the same binder?
A: -0.23

Q: And the “glycan array binding signal (z-score)” value [22]?
A: -0.206

Q: What about the “glycan array binding signal (z-score)” value [23] of the same binder?
A: -0.178

Q: What about the “glycan array binding signal (z-score)” value [24] of the same binder?
A: -0.158

Q: What about the “glycan array binding signal (z-score)” value [25] of the same binder?
A: -0.093

Q: And the “glycan array binding signal (z-score)” value [26]?
A: 0.663

Q: What about the “glycan array binding signal (z-score)” value [27] of the same binder?
A: -0.058

Q: And the “glycan array binding signal (z-score)” value [28]?
A: -0.341

Q: And the “glycan array binding signal (z-score)” value [29]?
A: 1.75

Q: What about the “glycan array binding signal (z-score)” value [30] of the same binder?
A: -0.214

Q: And the “glycan array binding signal (z-score)” value [31]?
A: -0.159

Q: What about the “glycan array binding signal (z-score)” value [32] of the same binder?
A: 1.93

Q: And the “glycan array binding signal (z-score)” value [33]?
A: -0.111

Q: And the “glycan array binding signal (z-score)” value [34]?
A: -0.322

Q: And the “glycan array binding signal (z-score)” value [35]?
A: -0.039

Q: And the “glycan array binding signal (z-score)” value [36]?
A: -0.166

Q: And the “glycan array binding signal (z-score)” value [37]?
A: -0.264
